Test results: publication PMC7819943, “Rice protein-binding microarrays: a tool to detect cis-acting elements near promoter regions in rice”
This is one part of the list.

These sequences were tested against T1, OsWOX13 (Oryza sativa, UniProt Q5QMM3 1-267) (assay: protein-binding microarray (RPBM); PBS, 2% BSA, 51.3 ng/ul salmon testes DNA, 50 uM zinc acetate, 200 nM TF, 25 C, 1 h; high values mean tight binding). Conditions: protein: recombinant; tags: N-terminal polyhistidine and DsRed monomer fusion (pET32a); label: CyDye5-dUTP incorporated in the synthesized complementary strand; 3' TTTTT single-stranded linker to array surface; dsDNA, one strand shown.
T1 sequence: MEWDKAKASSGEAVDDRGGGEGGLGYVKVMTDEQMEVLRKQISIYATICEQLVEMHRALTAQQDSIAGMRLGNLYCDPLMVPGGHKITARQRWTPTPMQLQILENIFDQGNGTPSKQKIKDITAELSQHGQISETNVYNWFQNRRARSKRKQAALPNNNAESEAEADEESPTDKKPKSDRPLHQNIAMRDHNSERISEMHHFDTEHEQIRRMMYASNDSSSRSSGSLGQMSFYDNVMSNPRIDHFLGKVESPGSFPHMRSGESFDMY
Procedure, shortened: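 For the binding signal, per-feature fluorescence intensity was read in arbitrary units on an Axon 4000B scanner. Before scanning, a 2% BSA-blocked custom Agilent array made double-stranded with Cy5-dUTP was washed after 1 h at 25 °C with 200 nM protein and 50 µM zinc acetate. The proteins were Ni–NTA-purified transcription factors with N-terminal polyhistidine and DsRed fusions, expressed in E. coli BL21-CodonPlus.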

Sequence | binding signal
ATTATTAACACAAATTATGATTTTGATGATCCTCGTGGATCGGAGTCACCTAGTGCAG | 34300 fluorescence intensity (a.u.)
AATAATAGAGGAAATTATTTTGGAATGTTACTCATGATTTCGGAGTCACCTAGTGCAG | 8020 fluorescence intensity (a.u.)
ACAATTAATCACACGTACCCTAGCCAGCTTGCTAATAAACCGGAGTCACCTAGTGCAG | 3220 fluorescence intensity (a.u.)
CTTAATTACGAAAAGGCCATACTGGGCCTGTACCTGCATCCGGAGTCACCTAGTGCAG | 24800 fluorescence intensity (a.u.)
TGAATCATGACAAATTTGCTTACAATTCGTTGCTGTAGTGCGGAGTCACCTAGTGCAG | 4180 fluorescence intensity (a.u.)
TCAGTTTTCCCGTTGTTGATTGCGATGATCCAGCCATCTACGGAGTCACCTAGTGCAG | 9040 fluorescence intensity (a.u.)
TCAGATGGAAGTGTGATAGATCGTCGGTGGTGTGGGGAGGCGGAGTCACCTAGTGCAG | 3990 fluorescence intensity (a.u.)
TTAGTCTTTAATGTTTCAATCTGTCCATATTAGTCCTTCACGGAGTCACCTAGTGCAG | 3540 fluorescence intensity (a.u.)
ATAAATTGTACTTCAACATTTGTAACATGTTGATAAATAACGGAGTCACCTAGTGCAG | 4710 fluorescence intensity (a.u.)
CATTTTGATTACAGCTCGAACAAAGCAGTACAATGCTAAACGGAGTCACCTAGTGCAG | 7470 fluorescence intensity (a.u.)
CTATTACTAGTAATTAATTTATACAAGATTTTGACTTCTCCGGAGTCACCTAGTGCAG | 12900 fluorescence intensity (a.u.)
AACTAATTACAGAATCCGACAGTAAACCGCGAGACGAATTCGGAGTCACCTAGTGCAG | 15700 fluorescence intensity (a.u.)
CGAAAATGATTTGGTACCGTGAGGTACCAGTACCTCGAGACGGAGTCACCTAGTGCAG | 10000 fluorescence intensity (a.u.)
GATAAATTTGGCCATTTTCTTCACTACCAAAATTTTGATTCGGAGTCACCTAGTGCAG | 9000 fluorescence intensity (a.u.)
ATTTAATTGTTTAAATGATAATGTGCAGTCAACATAGTAGCGGAGTCACCTAGTGCAG | 47400 fluorescence intensity (a.u.)
GTTGTAAATGTACATGATATATAAATTGTTGAGATCAAAGCGGAGTCACCTAGTGCAG | 5050 fluorescence intensity (a.u.)
GTGGGGTGGGATTGGAATTAGGAAATAAATGAAGGGTTAACGGAGTCACCTAGTGCAG | 9930 fluorescence intensity (a.u.)
GTAAATTTGGTGGTCTAATCCTGCCACATGAATATTACGACGGAGTCACCTAGTGCAG | 4070 fluorescence intensity (a.u.)
CAATTAATTAGGAGGCCGGTCAGCTCGATCATATCGCAGGCGGAGTCACCTAGTGCAG | 30500 fluorescence intensity (a.u.)
CAAATTTTAGCAAGTAATTATGAAATCTTGCCAAATTTTGCGGAGTCACCTAGTGCAG | 3520 fluorescence intensity (a.u.)
GCCTTGATTTATGGTGTTGCATGCAGCAATGTTATGCAGCCGGAGTCACCTAGTGCAG | 41100 fluorescence intensity (a.u.)

Sequence | binding signal
ACTGTAAATTAATTTGGTGTGAGCCTAGCAGGAGAGGGTGCGGAGTCACCTAGTGCAG | 36500 fluorescence intensity (a.u.)
CCCTTGACAGCACAGAGGCAACAGCAAAACACACTCTCATCGGAGTCACCTAGTGCAG | 6340 fluorescence intensity (a.u.)
CTAAATTAGATACCGCTACAGTAAACATTTGCTAATGATACGGAGTCACCTAGTGCAG | 15800 fluorescence intensity (a.u.)
AGTATGTGTTGATTATCTCAATTTTAAGGGAAGATATAACCGGAGTCACCTAGTGCAG | 9990 fluorescence intensity (a.u.)
GGGAATATTAGTGGGATGGGGATGAGGAATTGAGGAAGAACGGAGTCACCTAGTGCAG | 4410 fluorescence intensity (a.u.)
ACTTCAGAAATTGACAAAGATAACATCGTCCTTGTCAAGGCGGAGTCACCTAGTGCAG | 11100 fluorescence intensity (a.u.)
TCTTATGTGATCAATCAAATTCAGATACCATATGATGTCTCGGAGTCACCTAGTGCAG | 12600 fluorescence intensity (a.u.)
GGGTTTCAATCATTTAGGTGGACGTCCACTCATTTATTGCCGGAGTCACCTAGTGCAG | 16200 fluorescence intensity (a.u.)
ATGTGATGAAATCTGCTTGATTGCTGTTAACATTCATTCCCGGAGTCACCTAGTGCAG | 31300 fluorescence intensity (a.u.)
ACGAAATGCGGTGCTTCCTGTGATTGGCCTGTCCATTCTCCGGAGTCACCTAGTGCAG | 4370 fluorescence intensity (a.u.)
TCCAATTTGTCGTGTCAATTCTGAGTTCTTGGCCCATTCACGGAGTCACCTAGTGCAG | 3630 fluorescence intensity (a.u.)
ATTATAATAAACTGATATAAAATAAGCTGATAGTTCTTTGCGGAGTCACCTAGTGCAG | 5180 fluorescence intensity (a.u.)
AATAAAACTTACATGAGTTAATTGAGTGAGAAATTAATTCCGGAGTCACCTAGTGCAG | 4550 fluorescence intensity (a.u.)
GAAGATGATTGTTAAGTGGAAGTATAGAACTGAAACTTTCCGGAGTCACCTAGTGCAG | 10700 fluorescence intensity (a.u.)
ATTTGTCTATTGTGATAGATGACATGGATGTAAATGATAGCGGAGTCACCTAGTGCAG | 5660 fluorescence intensity (a.u.)
CCAATGATTTGGCTTCAAACCAAAATCACCAGATACACTGCGGAGTCACCTAGTGCAG | 16800 fluorescence intensity (a.u.)
TGATTGGTAATCAATCAATTATTATCATATACTCGCACTGCGGAGTCACCTAGTGCAG | 62300 fluorescence intensity (a.u.)
GATAGATGATATACCCGTTAACAATGAGACGTTTGTGGAGCGGAGTCACCTAGTGCAG | 3270 fluorescence intensity (a.u.)
ATCTCCTTGATTGCCACATCAACAGAACCGCGAACCATATCGGAGTCACCTAGTGCAG | 32100 fluorescence intensity (a.u.)
GTTAATTAGTTAACGACCAATCGAGCCTACTAGTATAAATCGGAGTCACCTAGTGCAG | 18000 fluorescence intensity (a.u.)
TTTTATGTCTGTCTGATTTCATTCTATTTCATGGTAGGTTCGGAGTCACCTAGTGCAG | 3360 fluorescence intensity (a.u.)

Sequence | binding signal
TAAAATTAAATGGATGAGAGGATGAGAGTAATCTAGTAAACGGAGTCACCTAGTGCAG | 15900 fluorescence intensity (a.u.)
CATGATTGTACGGCGGAGTGAAGCCTCCCTCATCACGGTGCGGAGTCACCTAGTGCAG | 37800 fluorescence intensity (a.u.)
TTGATTTGACAATGTGGTGCTACAATAAACATTTGCTAATCGGAGTCACCTAGTGCAG | 33300 fluorescence intensity (a.u.)
TGCTAATTTGGTTGTTGCGGTCAACTTTCCTAGCTGGTCACGGAGTCACCTAGTGCAG | 17100 fluorescence intensity (a.u.)
TGATAATAATCTGTTCAATAATTTATCTTAAACAGGGCCTCGGAGTCACCTAGTGCAG | 11200 fluorescence intensity (a.u.)
CCAAAATTAGCTTCGGTCGGTACAAACACCAGAATTCAGCCGGAGTCACCTAGTGCAG | 3710 fluorescence intensity (a.u.)
ACTCCTGACTTGATTGGCAGTGAGTTGCTCATCTGCCTAGCGGAGTCACCTAGTGCAG | 40300 fluorescence intensity (a.u.)
GAAATTGATCAGAAAGAGAGACAAGAGAAGAGCTAGGGTTCGGAGTCACCTAGTGCAG | 16800 fluorescence intensity (a.u.)
TTCTAATTGCACACAGTATTTGGTAGTAACTGGCATGAGACGGAGTCACCTAGTGCAG | 12000 fluorescence intensity (a.u.)
ACCACTGATGAATCATCTCAAATTATCATCTGATCAGCGACGGAGTCACCTAGTGCAG | 11600 fluorescence intensity (a.u.)
TCCCAATCACATTGTTACAACCAGCCCTAATACAGCATGACGGAGTCACCTAGTGCAG | 6990 fluorescence intensity (a.u.)
AAAACAGGTTAAATTACATAATTCAAGTTCTGAAGGGATTCGGAGTCACCTAGTGCAG | 4420 fluorescence intensity (a.u.)
TAGTGATTGGTTTCACAATTAATAATATTGGAATCGAACTCGGAGTCACCTAGTGCAG | 25000 fluorescence intensity (a.u.)
CGTCGTCCAATTAGACAATAATAAAGTGATTTTCGGTTGTCGGAGTCACCTAGTGCAG | 8550 fluorescence intensity (a.u.)
ATATCCTGATTAATTACATGAGACGGCTAAAATACAGGGGCGGAGTCACCTAGTGCAG | 15600 fluorescence intensity (a.u.)
ACGCCTGATTGATCCCCACCCCTATCTCCACTGACTGTGCCGGAGTCACCTAGTGCAG | 38000 fluorescence intensity (a.u.)
TTTGTAATTGTGTCTGCGCAAATGCGATGCCCGTGCGGCCCGGAGTCACCTAGTGCAG | 10600 fluorescence intensity (a.u.)
TTAAAATTAATTCCTTAATTATATCACCATTTGGTAGAAACGGAGTCACCTAGTGCAG | 31200 fluorescence intensity (a.u.)
ATTAGATTAGTCAACACGTATCTCTGCTATCTTAACATGCCGGAGTCACCTAGTGCAG | 16800 fluorescence intensity (a.u.)
CGGTTTAGTTTATTTACAAAATTTTAATCTACTGCATTGCCGGAGTCACCTAGTGCAG | 3900 fluorescence intensity (a.u.)
AATCTTGACTGTCTTCATCATTCCCTTGAGCTCTTTATTGCGGAGTCACCTAGTGCAG | 7160 fluorescence intensity (a.u.)

Sequence | binding signal
TTCGGACTGAAATTTTAAAGATTAATCTCTAGGGGTTAGTCGGAGTCACCTAGTGCAG | 3190 fluorescence intensity (a.u.)
AATAAATAGCTTATTATAAATTAAATTTTATTTGATGAAACGGAGTCACCTAGTGCAG | 9670 fluorescence intensity (a.u.)
CACATATTGATTTCAATTAATCTCACCCTGTTTAAATGTGCGGAGTCACCTAGTGCAG | 40600 fluorescence intensity (a.u.)
AATTAATCATCTCCTATCACCGCCCTAATCCTCTACAGTACGGAGTCACCTAGTGCAG | 21100 fluorescence intensity (a.u.)
AAAATAGACTAATTATTGAACGCACCCATACAAAAGTGTGCGGAGTCACCTAGTGCAG | 26500 fluorescence intensity (a.u.)
CCAAATTTGATAAAGTTTGACCACTCGGCCCTGTAGTCAACGGAGTCACCTAGTGCAG | 14500 fluorescence intensity (a.u.)
TGCCAATTAGCTAACTTCTAGATGGACAACGATTGAATCACGGAGTCACCTAGTGCAG | 4870 fluorescence intensity (a.u.)
TCTCATACAATCAACAACCTTAAACACATCAGCTCTAGTACGGAGTCACCTAGTGCAG | 4160 fluorescence intensity (a.u.)
ATCATAATATGAAATATGGTAATTACCATAAGAATAAAAGCGGAGTCACCTAGTGCAG | 3580 fluorescence intensity (a.u.)
GGGTGTCGCATGATTAAATAAATCGGAATTACTAAATGGCCGGAGTCACCTAGTGCAG | 7010 fluorescence intensity (a.u.)
GAAAACAATTGAGATTTAATCGGTAATATATTTAGTTAAGCGGAGTCACCTAGTGCAG | 4920 fluorescence intensity (a.u.)
CGCGTAAATTAAATCGGAGTTAAATTAGTGATGCCGCCAACGGAGTCACCTAGTGCAG | 20500 fluorescence intensity (a.u.)
AGCCAAAGATGGTGATTGATGCACATGGTATGGTCGGACGCGGAGTCACCTAGTGCAG | 17800 fluorescence intensity (a.u.)
GAGGGAGGGAAATTAATTGATGATATCCGGTTTGGTGCCCCGGAGTCACCTAGTGCAG | 19100 fluorescence intensity (a.u.)
TATTTAAATAGAAATAAAATGATTTATTCAAATGTTATCGCGGAGTCACCTAGTGCAG | 6230 fluorescence intensity (a.u.)
GCCATCCATATTATAATTGAAAATAAATACTTATCCCTTTCGGAGTCACCTAGTGCAG | 7980 fluorescence intensity (a.u.)
GTTTTGGATGATTAACTTTTGTGAATACTCATATCTCTTACGGAGTCACCTAGTGCAG | 3870 fluorescence intensity (a.u.)
GATCATCAATATTGATTGAGAATATTTCACGACTGATTTGCGGAGTCACCTAGTGCAG | 40900 fluorescence intensity (a.u.)
TTGCTTACTCACCGAGTCAATCATGACCAACCTGTCACATCGGAGTCACCTAGTGCAG | 5450 fluorescence intensity (a.u.)
TTGATTAATTTGACGTCGATGCTACTAATAGTTAACCTTCCGGAGTCACCTAGTGCAG | 54200 fluorescence intensity (a.u.)
CCAACTAATTGTTTCTCAAAATTTTAAACTCCCCGAATACCGGAGTCACCTAGTGCAG | 26400 fluorescence intensity (a.u.)
